Variants at the floor of the assay are shown more often than the library holds them.
B1: tRNA (parent)
chain: CUCUCGGUAGCCAAGUUGGUUUAAGGCGCAAGACUUUAAUUUAUCACUACGAAAUCUUGAGAUCGGGCGUUCGACUCGCCCCCGGGAGAUUUUUUCCUCGAGCAA

Variants of: B1
Assay: nonsense suppression (GFP-seq) (ratio to wild type); higher = more function; SUP4oc tRNA, yeast GFP reporter sort-seq
Procedure, shortened: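 Raffinose/galactose medium with 80 mg/L adenine was used to grow yeast carrying genome-integrated tRNA variants (~3% random-mutation library), RFP, and a galactose-driven GFP ochre reporter. Cells went into GFP/RFP bins, which were Illumina-sequenced, and variants with ≥100 reads and ≥30 cells were scored. Nonsense suppression (GFPSEQ) is the per-bin median GFP/RFP weighted by estimated cell share and expressed relative to the unmutated parent tRNA.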

Nonsense suppression, ≤ 0.026:
CUCUCGGUAUCCAAGUUGGUUUAAGGCGCAAGACUUUAAUUUAUCACUACGAAACCUUGAGAUCGGGCGUUCGACUCCCCCCCGGGAGCUUUUUUCCUCGAGCAA [G10U U55C G78C A89C]
CUCUCGGUAUCCAAGUUGGUUUAAGGCGCAAGACUUUAAUUUAUCACUACGAAAUCCUGAGAUCGGACGUUCGACUCGCCCCCGGGGGAUUUUUUCCUCGAGCAA [G10U U57C G67A A87G]
CUCUCGGUAUCCAAGUUGGUUUAAGGCGCAAGACUUUAAUUUAUCACUACGAAAUCCUGAGAUCGGGCGUUCCACGCGCCCCCGGGAGAUUUUUUCCUCGAGCAA [G10U U57C G73C U76G]
CUCUCGGUAUCCAAGUUGGUUUAAGGCGCAAGACUUUAAUUUAUCACUACGAAAUCGUGAGAUCGUGCGUUCGACACGCCCCCGGGAGAUUUUUUCCUCGAGCAA [G10U U57G G66U U76A]
CUCUCGGUAUCCAAGUUGGUUUAAGGCGCAAGACUUUAAUUUAUCACUACGAAAUCUGGAGAUCGGGCGUUCGACUCGCCCCCGGCAGAUUUUUUCCUCGAGCAA [G10U U58G G86C]
CUCUCGGUAUCCAAGUUGGUUUAAGGCGCAAGACUUUAAUUUAUCACUACGAAAUCUUGAGACCGGGCGUUCGACUCACCCCCGGGAGAUUUUUUCCUCGAGCAA [G10U U63C G78A]
CUCUCGGUAUCCAAGUUGGUUUAAGGCGCAAGACUUUAAUUUAUCACUACGAAAUCUUGAGAUCGGGCGCUCGACUCGCGCCCGGGAGAUUUUUUCCUCGAGCAA [G10U U70C C80G]
CUCUCGGUAGACAAGUUGGUUUAAGGCGCAAGACUUUAAUUUAUCACUACGAAAUCUUGAGAUCGGGCGUUCGACUCGCCCCCGGGAGAUUUUUUCCUCGAGCAA [C11A]
CUCUCGGUAGACGAGUUGGUUUAAGGCGCAAGACUUUAAUUUAUCACUACGAAAUCUUGAGAUCGGGCGUUCGACUCGCCCCCGGGAGAUUUUUUCCUCGAGCAA [C11A A13G]
CUCUCGGUAGACGAGUUGGUUUAAGGCGCUAGACUUUAAUUUAUCACUACGAAAUCUUGAGAUCGGGCGUUCGACUCGCCUCCGGGAGAUUUUUUCCUCGAGCAA [C11A A13G A30U C81U]
CUCUCGGUAGACACGUCGGCUUAAGGCGCAAGACUUUAAUUUAUCACUACGAAAUCUUGAGAUCGGGCGUUCGACUCGCCCCCGGGAGAUUUUUUCCUCGAGCAA [C11A A14C U17C U20C]
CUCUCGGUAGACACGUUGGUUGAAGGCGCAAGACUUUAAUUUAUCACUACGAAAUCUUGAGAUCGCGCGUUCGACUCGCCCCCGGGAGAUUUUUUCCUCGAGCAA [C11A A14C U22G G66C]
CUCUCGGUAGACAGGUUGGUUUAAGGCGCUAGACUUUAAUUUAUCACUACGAAAUCUUGAGAUCGUGCGUUCGACUCGCCCCCGGGCGAUUUUUUCCUCGAGCAA [C11A A14G A30U G66U A87C]
CUCUCGGUAGACAGGUUGGUUUAAGGCGCAAGACUUUAAUUUAUCACUACGAAAUCUUGAGACCGGGCGUUCGACUCGCCCCCGGGAGAUUUUUUCCUCGAGCAA [C11A A14G U63C]
CUCUCGGUAGACAUGUUGGUUUAAGGCGCAAGACUUUAAUUUAUCACUACGAAAUCUUGAGAUCGGGCGUUCGACUCGCCCCCGGGAGAUUUUUUCCUCGAGCAA [C11A A14U]
CUCUCGGUAGACAAGUUGGUUUGAGGCGCAAGACUUUAAUUUAUCACUACGAAAUCUUGAGAUCGGGCGUUCGACUCGCCCCCGGGAGAUUUUUUCCUCGAGCAA [C11A A23G]
CUCUCGGUAGACAAGUUGGUUUGAGGCGCAAGACUUUAAUUUAUCACUACGAAAUCUUGAGAUCGGGCGUUCGACUCGGCCCCGGGAGAUUUUUUCCUCGAGCAA [C11A A23G C79G]
CUCUCGGUAGACAAGUUGGUUUGAGGCGCAAGACUUUAAUUUAUCACUACGAAAUCUUGAGAGCGGGCGUUCGACUCGCCCCCGGGAGAUUUUUUCCUCGAGCAA [C11A A23G U63G]
CUCUCGGUAGACAAGUUGGUUUUGGGCGCAAGACUUUAAUUUAUCACUACGAAAUCUUGAGAUCGGGCGUUCGACUCGCCUCCGGGAGAUUUUUUCCUCGAGCAA [C11A A23U A24G C81U]
CUCUCGGUAGACAAGUUGGUUUAGGGCGCAAGACUUUAAUUUAUCACUACGAAAUCUUGAGAUCGUGGGUACGACUCGCCCCCGGGAGAUUUUUUCCUCGAGCAA [C11A A24G G66U C68G U71A]
CUCUCGGUAGACAAGUUGGUUUAAGGCGCUAGACUUUAAUUUAUCACUACGAAAUCUUGAGAUCGGGCGUUCGACUCGCCCCCGGGAGAUUUUUUCCUCGAGCAA [C11A A30U]
CUCUCGGUAGACAAGUUGGUUUAAGGCGCUAGACUUUAAUUUAUCACUACGAAAUCUUGAGAUCGGGCGUUGGACUCGCCCCCGGGAGAUUUUUUCCUCGAGCAA [C11A A30U C72G]
CUCUCGGUAGACAAGUUGGUUUAAGGCGCAGGACUUUAAUUUAUCACUACGAAAUCUUGAGAUCGGGCGUUCGACGCGCCCCCGGGAGAUUUUUUCCUCGAGCAA [C11A A31G U76G]
CUCUCGGUAGACAAGUUGGUUUAAGGCGCAUGACUUUAAUUUAUCACUACGAAAUCUUGAGAUGGGGCGUUCGACUCGCCCCCGGGAGAUUUUUUCCUCGAGCAA [C11A A31U C64G]
CUCUCGGUAGACAAGUUGGUUUAAGGCGCAAGGCUUUAAUUUAUCACUACGAAAUCUUGAGAUCGCGCGUUCGACCCGCCCCCGGGAGAUUUUUUCCUCGAGCAA [C11A A33G G66C U76C]
CUCUCGGUAGACAAGUUGGUUUAAGGCGCAAGGCAUUAAUUUAUCACUACGAAAUCUGGACAUCGGGCGUUCGACUCGCCCCCGGGAGAUUUUUUCCUCGAGCAA [C11A A33G U35A U58G G61C]
CUCUCGGUAGACAAGUUGGUUUAAGGCGCAAGACUUUAAUUUAUCACUACGAAAUCUUGUGAUCGGGCGUUCGACUCGCCCCCGGGAGAUUUUUUCCUCGAGCAA [C11A A60U]
CUCUCGGUAGACAAGUUGGUUUAAGGCGCAAGACUUUAAUUUAUCACUACGAAAUCUUGUGAUCGGGCGUUCGACUCGCCCCCCGGAGAUUUUUUCCUCGAGCAA [C11A A60U G84C]
CUCUCGGUAGACAAGUUGGUUUAAGGCGCAAGACUUUAAUUUAUCACUACGAAAUCUUGAGCUCGGGGGUUCGACUCGCACCCGGGAGAUUUUUUCCUCGAGCAA [C11A A62C C68G C80A]
CUCUCGGUAGACAAGUUGGUUUAAGGCGCAAGACUUUAAUUUAUCACUACGAAAUCUUGAGAUCGGGCGUUCGACUCGCCCCCGGGUGAUUUUUUCCUCGAGCAA [C11A A87U]
CUCUCGGUAGACAAGUUGGUUUAAGGCGCAAGACUUUAAUUUAUCACUACGAAAUCUUGAGAUCGGGCGUUCGACUCGCCCCCGGGAGGUUUUUUCCUCGAGCAA [C11A A89G]
CUCUCGGUAGAAAACUUGGUUUAAGGCGCAAGACUUUAAUUUAUCACUACGAAAUUUUGAGAUCGGGCGUUCGACUCGCCCCCGGGAGAUUUUUUCCUCGAGCAA [C11A C12A G15C C56U]
CUCUCGGUAGAUAAGUUGGUUUAAGGCGCAAGACUUUAAUUUAUCACUACGAAAUCUUAAGAUCGGGCGUACGACUCGCCCCCGGGAGAUUUUUUCCUCGAGCAA [C11A C12U G59A U71A]
CUCUCGGUAGACAAGUUGGUUUAAGGGGCAAGACUUUAAUUUAUCACUACGAAAUCUUGAGAUCGGGCGUUCGACUCGCCCCCGGGAGAUUUUUUCCUCGAGCAA [C11A C27G]
CUCUCGGUAGACAAGUUGGUUUAAGGUGCAAGACUUUAAUUUAUCACUACGAAAUCUUGAGAUCGGGCGUUCGACUCGUCCCCGGGAGAUUUUUUCCUCGAGCAA [C11A C27U C79U]
CUCUCGGUAGACAAGUUGGUUUAAGGCGAAAGACUUUAAUUUAUCACUACGAAAUCUUGAGACCGGGCGUUCGACUCGCCCCCGGGAGAUUUUUUCCUCGAGCAA [C11A C29A U63C]
CUCUCGGUAGACAAGUUGGUUUAAGGCGUAAGUCUUUAAUUUAUCACUACGAAAUCUUGAGAUCGGGCGUUCGACUCGCCCCCGCGAGAUUUUUUCCUCGAGCAA [C11A C29U A33U G85C]
CUCUCGGUAGACAAGUUGGUUUAAGGCGUAAGAGUUUAAUUUAUCACUACGAAAUCUUGAGAUCGGGCGUUCGACUCGCCCCCUGGAGAUUUUUUCCUCGAGCAA [C11A C29U C34G G84U]
CUCUCGGUAGACAAGUUGGUUUAAGGCGCAAGAGUUUAAUUUAUCACUACGAAAUCUUGAGAUCGGGCGUUCGACUCGCCCCCGGGAGAUUUUUUCCUCGAGCAA [C11A C34G]
CUCUCGGUAGACAAGUUGGUUUAAGGCGCAAGAUUUUAAUUUAUCACUACGAAAUCUUGAGAUCGGGCGUUCGACUCGCCCCCGGGAGAUUUUUUCCUCGAGCAA [C11A C34U]
CUCUCGGUAGACAAGUUGGUUUAAGGCGCAAGACUUUAAUUUAUCACUACGAAAUGUUGAGAUCGGGCGUUCGACUCGCCCCCGGGAGAUUUUUUCCUCGAGCAA [C11A C56G]
CUCUCGGUAGACAAGUUGGUUUAAGGCGCAAGACUUUAAUUUAUCACUACGAAAUGUUGAGAUCGUGCGUUCGACUCGCCUCCGGGAGAUUUUUUCCUCGAGCAA [C11A C56G G66U C81U]
CUCUCGGUAGACAAGUUGGUUUAAGGCGCAAGACUUUAAUUUAUCACUACGAAAUCUUGAGAUCGGGCGUUCGACUCGACCCCGGGAGAUUUUUUCCUCGAGCAA [C11A C79A]
CUCUCGGUAGACAAGUUGGUUUAAGGCGCAAGACUUUAAUUUAUCACUACGAAAUCUUGAGAUCGGGCGUUCGACUCGCCUCCGGGAGAUUUUUUCCUCGAGCAA [C11A C81U]
CUCUCGGUAGACAAAUUGGUUUAAGGCGCACGACUUUAAUUUAUCACUACGAAAUCUUGAGAUCGGGCGUUCGACUCGGCCCCGGGAGAUUUUUUCCUCGAGCAA [C11A G15A A31C C79G]
CUCUCGGUAGACAAAUUGGUUUAAGGCGCAAGACUUUAAUUUAUCACUACGAAAUCUUGAGAUCGGGCGUUCGACUCGCCCCCGGGCGAUUUUUUCCUCGAGCAA [C11A G15A A87C]
CUCUCGGUAGACAACUUGGUUUUAGGCGCAAGACUUUAAUUUAUCACUACGAAAUCUUGAGAUCGGGCGUUCGACUCGCCCCUAGGAGAUUUUUUCCUCGAGCAA [C11A G15C A23U C83U G84A]
CUCUCGGUAGACAACUUGGUUAAAGGCGCAAGACUUUAAUUUAUCACUACGAAAUCUUGAGAUCGGGCGUUCGACUCGCCCCCGGGAGAUUUUUUCCUCGAGCAA [C11A G15C U22A]
CUCUCGGUAGACAAGUUCGUUUAAGGCGCAAGAUUUUAAUUUAUCACUACGAAACCUUGAGAUCGGGCGUUCGACUCGCCCCCGGGAGAUUUUUUCCUCGAGCAA [C11A G18C C34U U55C]
CUCUCGGUAGACAAGUUCGUUUAAGGCGCAAGACUUUAAUUUAUCACUACGAAAUCUUGAGAUCGCACGUACGACUCGCCCCCGGGGGAUUUUUUCCUCGAGCAA [C11A G18C G66C G67A U71A A87G]
CUCUCGGUAGACAAGUUUGUUUAAGGCGCAAGACUUUAAUUUAUCACUACGAAAUCCUGAGAUCGGGGGUUCGACUCGCCCCCGGGAGAUUUUUUCCUCGAGCAA [C11A G18U U57C C68G]
CUCUCGGUAGACAAGUUUGUUUAAGGCGCAAGACUUUAAUUUAUCACUACGAAAUCCUGAUAUCGGGCGUUCGACUCGCCCCCGGGAGAUUUUUUCCUCGAGCAA [C11A G18U U57C G61U]
CUCUCGGUAGACAAGUUGAUUUAAGGCGCAAGACUUUAAUUUAUCACUACGAAAUCUUGAGAUCGGGCGUUGGACUCGCCCCCGGGAGAUUUUUUCCUCGAGCAA [C11A G19A C72G]
CUCUCGGUAGACAAGUUGUUUUAAGGCACAAGAUUUUAAUUUAUCACUACGAAAUCUUAAGAUCGGGCGUUCGACUCGCCCCCGGCAGAUUUUUUCCUCGAGCAA [C11A G19U G28A C34U G59A G86C]
